Some of the results follow.

The test deals with PfSIP2 AP2 domain 1 (GST-tagged). Put plainly: gcPBM binding intensity (ln(normalized median fluorescence intensity)); higher = stronger DNA binding. The procedure, abridged: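 Binding intensity is defined as the maximum Masliner-normalised natural-log median intensity across replicate spots for either probe orientation. It was measured on an Agilent 4 × 180k array of primer-extended double-stranded 36-bp intergenic genomic probes and negative controls, to which GST-tagged P. falciparum DNA-binding domains made in E. coli were applied for 1 h in 1× PBS with 1% milk, 0.2 mg/ml BSA, 0.5% salmon testes DNA and 0.03% Triton X-100. Detection was by Alexa488 anti-GST antibody and scanning at 488 nm.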
In the case of “ATTTTTTATGAAAATAAACACACGATTTATTATATA [CACACA_site1312]”, the “gcPBM binding intensity (ln)” value was determined as 6.76.

For “TAAAAAATTATTAAACGTACGAGACTTTTTATCAGT [XGTACX_site2219]”, the “gcPBM binding intensity (ln)” value turned out to be 7.05.

Turning to “TGTAGTCATTAGTCAAATTAGAATTAAATATATATT [GTGCAC_negctrl_site643]”, the “gcPBM binding intensity (ln)” value was 6.94.

As for “CATAAAAATGGATACACACACATAATATATTTATAT [CACACA_site7669]”, the “gcPBM binding intensity (ln)” value turned out to be 7.16.

“ACAATATATTCATATTGTACATAAAATAAGGCTAAC [XGTACX_site6728]”: the “gcPBM binding intensity (ln)” value stood at 7.44.

Regarding “TATATTTAAATTCTTTCAAATCATGTTGTAATTTTT [CACACA_negctrl_site1349]”, the “gcPBM binding intensity (ln)” value came out at 6.8.

Consider “ATACACTTAATATTATGTACATATATAAAAAAAATA [XGTACX_site1500]”, for which the “gcPBM binding intensity (ln)” value was found to be 7.19.

In the case of “TATAAAAATAATATTACACACATGTAAAATGGGGGT [CACACA_site9071]”, the “gcPBM binding intensity (ln)” value was 7.28.

Take “AGGAATATCGAAAACTGTACTTGTATGTTTCATAAA [XGTACX_site6143]”: the “gcPBM binding intensity (ln)” value amounted to 6.94.

With “AATTGTATGTATGCCTGTACATATGTCTATCTTAAG [XGTACX_site1927]”, the “gcPBM binding intensity (ln)” value was found to be 6.92.

For “TATTTTATATGAGGCACACAAATTTTAATTGTTATT [CACACA_site725]”, the “gcPBM binding intensity (ln)” value was 6.72.

Turning to “ATTTATTTATTTTTTTGTACTTATAATTTTTATTAT [XGTACX_site2656]”, the “gcPBM binding intensity (ln)” value came out at 7.03.

Take “GCACATATGAATATAATACACACTTGTATTATTAAT [CACACA_site1841]”: the “gcPBM binding intensity (ln)” value was 6.9.

With “ATTTTATATACAAAATGTACATATTTATTATATATG [XGTACX_site6732]”, the “gcPBM binding intensity (ln)” value is 6.99.

In the case of “GGAGCTATCTCCTGCACACACAATTTTTTTTTTTTT [CACACA_site2240]”, the “gcPBM binding intensity (ln)” value is 7.04.

On to “AAGGATACGCAAAAATGTACAAAATGCTTATAAATA [XGTACX_site984]”, for which the “gcPBM binding intensity (ln)” value came to 6.94.

With “ATTAAAATCATATACACACCCATATATATATATATA [CACACA_site5050]”, the “gcPBM binding intensity (ln)” value amounted to 9.39.

Turning to “ATACATATCTACCTATGTACATAATACAACAAAGAT [XGTACX_site323]”, the “gcPBM binding intensity (ln)” value was 7.2.

With “GAATAAATACCGGTGTGTACTTAAATCATTCACGAA [XGTACX_site3174]”, the “gcPBM binding intensity (ln)” value amounted to 6.91.

Take “TGAGTATATAAATACACACACATATATATATTTTAA [CACACA_site5130]”: the “gcPBM binding intensity (ln)” value worked out at 6.78.

Turning to “TTTTATTTTTAAGGATGTACTCAATTGTTTATATAC [XGTACX_site3965]”, the “gcPBM binding intensity (ln)” value amounted to 7.06.

On to “TTTTTTTTTAATAAAATTATAATAAATATGAAATTA [XGTACX_negctrl_site369]”, for which the “gcPBM binding intensity (ln)” value came to 6.67.

Take “ATATATATATATATATGTACACATATATATACTCAC [XGTACX_site8043]”: the “gcPBM binding intensity (ln)” value came to 9.5.

As to “TTAGAAAGAATGTATTGTACATATATATTATATATA [XGTACX_site7045]”, the “gcPBM binding intensity (ln)” value is 7.41.

Values taken from the supplement of paper PMC11417369.
